Results on 43 compounds are retold here after the supplement of paper PMC6135742.

Counter-ions that a name gives are not always drawn. ± gives the standard deviation of the averaged measurements. The full ranking holds about 2,600 compounds; the median of “MBP+ mature oligodendrocyte number relative to DMSO vehicle control” is about -0.34, and the highest 2% start at about 13. This is one part of the list.

The test system of the assay is jimpy (Plp1 jimpy) mouse iPSC-derived oligodendrocyte progenitor cells. Briefly: MBP+ mature oligodendrocyte number relative to DMSO vehicle control (SDs above negative control mean); higher = more surviving jimpy oligodendrocytes (rescue). The settings on record: 10 µM; 3 days. As for the experimental part: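 Primary phenotypic screen of >3,000 bioactive compounds (Selleck L1700 and Sigma LO1280 libraries) at a single dose of 10 µM. Compounds were added to jimpy (Plp1 mutant) mouse iPSC-derived OPCs at the start of thyroid hormone-induced oligodendrocyte differentiation, one well per compound in 384-well plates. After 3 days cells were stained for MBP, Sox10 and DAPI and imaged with an Operetta system. MBP+ oligodendrocyte number and total cell number were expressed as the number of SDs above the mean of the DMSO negative control on the same plate (n=16 control wells per plate). Hits were defined as >=4 SD for oligodendrocytes and >=2 SD for total cells.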
`CC1(C)CCC(CN2CCN(c3ccc(C(=O)NS(=O)(=O)c4ccc(NCC5CCOCC5)c([N+](=O)[O-])c4)c(Oc4cnc5[nH]ccc5c4)c3)CC2)=C(c2ccc(Cl)cc2)C1`: the “MBP+ mature oligodendrocyte number” value was -2.66. Turning to `S=C(Nc1ccccc1)Nc1nccs1` [1-Phenyl-3-(2-thiazolyl)-2-thiourea], the “MBP+ mature oligodendrocyte number” value was -1.26. As for `COCCOc1cc2nc[nH]c(=O)c2cc1OCCOC`, the figure is -1.06; as for `CSc1ccc(C(=O)c2[nH]c(=O)[nH]c2C)cc1` [Enoximone], 0.659; as for `COc1ccc(-c2ccc(=N)n(CCCC(=O)O)n2)cc1`, 0.896. Under `COc1cc(OC)c(C(=O)CCCN2CCCC2)c(OC)c1` [Buflomedil HCl] stands 10.4; under `CC(=O)NCCc1c[nH]c2ccc(O)cc12` [N-Acetyl-5-hydroxytryptamine], -0.511; under `N#CC(c1ccc(Cl)cc1)c1c(Cl)cc(-n2ncc(=O)[nH]c2=O)cc1Cl` (stereo not drawn) [Diclazuril], 0.973. With `O=c1ccc2ccc(O)c(O)c2o1` [Daphnetin], the “MBP+ mature oligodendrocyte number” value came out at 0.283 ± 0.24. For the compound `CC(C)(C)C(=O)OCOP(=O)(COCCn1cnc2c(N)ncnc21)OCOC(=O)C(C)(C)C` [Adefovir Dipivoxil], the “MBP+ mature oligodendrocyte number” value was below -5.15. Under `Nc1nc(N)c2nc(-c3cccc(O)c3)cnc2n1` stands -5.77; under `COc1ccccc1N1CCN(CC(O)COc2cccc3ccccc23)CC1` (stereo not drawn) [Naftopidil], 2.07. As for `COc1ccccc1N1CCN(CC(O)COc2cccc3ccccc23)CC1` (stereo not drawn) [Naftopidil DiHCl], the figure is 5.87; as for `COc1ccccc1N1CCN(CC(O)COc2cccc3ccccc23)CC1` (stereo not drawn) [Naftopidil dihydrochloride], -0.127. As for `CN1CCC(=C2c3ccccc3CC(=O)c3sccc32)CC1` [Ketotifen fumarate], the figure is -2.95; as for `CN1CCC(=C2c3ccccc3CC(=O)c3sccc32)CC1` [Ketotifen Fumarate], -2.27. For `O=C(O)CC[C@H]1CC[C@@](c2cc(F)ccc2F)(S(=O)(=O)c2ccc(Cl)cc2)CC1`, the “MBP+ mature oligodendrocyte number” value was 3.68. As for `CCCN(CCC)C(=O)C(CCC(=O)O)NC(=O)c1ccccc1` (stereo not drawn) [Proglumide], the “MBP+ mature oligodendrocyte number” value was -0.402. As for `CN1CCc2ccccc2Cc2[nH]c3ccccc3c2CC1`, the figure is 0.539. As for `CC(C)(Sc1cc(C(C)(C)C)c(O)c(C(C)(C)C)c1)Sc1cc(C(C)(C)C)c(O)c(C(C)(C)C)c1` [Probucol], the figure is -4.58; as for `Nc1ccc(-c2nc3ccc(-c4nc5ccc(N)cc5[nH]4)cc3[nH]2)cc1`, -1.97.

With `C=CC(=O)Nc1cccc(Nc2nc(Nc3ccc(N4CCN(C(C)=O)CC4)cc3OC)ncc2C(F)(F)F)c1`, the “MBP+ mature oligodendrocyte number” value was -6.1. As for `CS(=O)(=O)CCNCc1ccc(-c2ccc3ncnc(Nc4ccc(OCc5cccc(F)c5)c(Cl)c4)c3c2)o1`, the “MBP+ mature oligodendrocyte number” value was -6.52.

Consider `Nc1c(Br)cc(Br)cc1CN[C@H]1CC[C@H](O)CC1` [Ambroxol HCl], for which the “MBP+ mature oligodendrocyte number” value was found to be 3.91. As for `Cn1ccnc1S` [Methimazole], the “MBP+ mature oligodendrocyte number” value was -0.107.

With `O=c1cc(-c2ccc(O)c(O)c2)oc2cc(O)cc(O)c12` [Luteolin], the “MBP+ mature oligodendrocyte number” value was -4.47. On to `CC(=O)Nc1ccc(NC(=S)NC(=O)c2ccc(C(C)(C)C)cc2)cc1` [Tenovin-1], for which the “MBP+ mature oligodendrocyte number” value was 2.25. As for `NCCCCNCCCN` [Spermidine trihydrochloride], the figure is -0.104. With `Nc1ncn([C@H]2C[C@H](O)[C@@H](CO)O2)c(=O)n1` [Decitabine], the “MBP+ mature oligodendrocyte number” value is -1.2. On to `O=C(Cc1ccc(-c2ccc(OCCN3CCOCC3)cc2)cn1)NCc1ccccc1`, for which the “MBP+ mature oligodendrocyte number” value was -5.77.

With `N[C@H](CO)C(=O)O` [D-Serine], the “MBP+ mature oligodendrocyte number” value is -0.461. Under `O=C1Cc2cc(CCN3CCN(c4nsc5ccccc45)CC3)c(Cl)cc2N1` [Ziprasidone HCl] stands 21.9; under `O=C1Cc2cc(CCN3CCN(c4nsc5ccccc45)CC3)c(Cl)cc2N1` [Ziprasidone hydrochloride monohydrate], 11.7. Under `CC(C)/N=c1\cc2n(-c3ccc(Cl)cc3)c3ccccc3nc-2cc1Nc1ccc(Cl)cc1` [Clofazimine] stands -4.15. For the compound `CO[C@@]1(NC(=O)CSCC#N)C(=O)N2C(C(=O)O)=C(CSc3nnnn3C)CS[C@@H]21` [Cefmetazole sodium], the “MBP+ mature oligodendrocyte number” value amounted to 0.0385. As for `C[C@@H]1[C@H](O)[C@@H](C)/C=C/C=C/C=C/C=C/C=C/C=C/C=C/[C@H](O[C@@H]2O[C@H](C)[C@@H](O)[C@H](N)[C@@H]2O)C[C@@H]2O[C@](O)(C[C@@H](O)C[C@@H](O)[C@H](O)CC[C@@H](O)C[C@@H](O)CC(=O)O[C@H]1C)C[C@H](O)[C@H]2C(=O)O` [Amphotericin B], the figure is 1.78.

As to `CCOC(=O)C(C)(C)Oc1ccc(Cl)cc1` [Clofibrate], the “MBP+ mature oligodendrocyte number” value was 0.667. Take `O=c1cc(N2CCOCC2)oc2c1ccc1ccccc12`: the “MBP+ mature oligodendrocyte number” value was -1.96. Regarding `c1cnc2c(c1)ccc1cccnc12` [1,10-Phenanthroline monohydrate], the “MBP+ mature oligodendrocyte number” value is below -3.85. As for `CC(C)NC[C@H](O)COc1ccc(CC(N)=O)cc1` [S(-)-Atenolol], the figure is -0.236.

Consider `Cc1cc(Nc2ccc(NC(=O)c3ccc(Nc4ccnc5ccccc45)cc3)cc2)nc(N)n1`, for which the “MBP+ mature oligodendrocyte number” value was below -6.35.

As for `CCC(NC(C)C)C(O)c1ccc(O)c(O)c1` (stereo not drawn) [Isotharine mesylate], the “MBP+ mature oligodendrocyte number” value was -1.23. Under `CN1C2=CC(=O)/C(=N\NC(N)=O)C=C2CC1S(=O)(=O)O` (stereo not drawn) [Carbazochrome sodium sulfonate (AC-17)] stands 3.28.
